# Data published in PubChem BioAssay AID1479 (National Center for Advancing Translational Sciences (NCATS), 2009).
# About 820 (0.29%) of roughly 280,000 compounds were called active. This list was built around the results that the source calls inconclusive (neither active nor inactive); the mix of calls is not that of the screen. The call rests on the fitted dose curve; in most records, active means well fitted curve in either direction with a large enough effect; inconclusive means small, poorly fitted or top-dose-only effect; inactive means flat fitted curve, though single readings scatter. No potency is given beside an inconclusive call; the fits are too rough.
# Experiment: Total Fluorescence Counterscreen for Inhibitors of the Interaction of Thyroid Hormone Receptor and Steroid Receptor Coregulator 2
# Details: TRb/SRC2 Texas Red total fluorescence interference; series mostly up to 106 µM; fluorescence change, negative = quenching: at the top concentration
# Procedure, shortened: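 Human TRβ ligand-binding domain (0.6 uM) and Texas Red SRC2 peptide (20 nM) in Tris buffer with 1 uM T3 and 5% DMSO were incubated with pinned compound for 5 hr at ambient temperature. Total fluorescence was computed as S + 2P (555/632 nm).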
# On the % scale 0 is the no-effect control and ±100 the full control effect; potency means the concentration at half of the fitted maximal effect; tags describe the fitted curve by direction and shape or compound fluorescence and quenching.
Compound,Potency,"fluorescence change, negative = quenching"
CCOc1ccc(NC(=O)CSc2nc3ccccc3nc2N2CCOCC2)cc1,"inconclusive [falling, full curve, poor fit]",
O=C(NNC(=O)c1cccc(S(=O)(=O)N2CCN(c3ccccc3)CC2)c1)c1ccc(Cl)cc1,"inconclusive [falling, full curve, poor fit]",
O=C(O)c1ccc(N2C(=O)/C(=C/c3ccc(-c4ccc([N+](=O)[O-])cc4)o3)C=C2c2ccccc2)cc1,active: 35.5 µM [fluorescent],
CC(CNC(=O)Cn1c(-c2cccs2)cc2cc(Cl)ccc21)c1ccccc1 (centres undefined),"inconclusive [quencher, full curve]",
Cc1ccc(-n2ccn(CC(=O)c3ccc(F)cc3)c(=O)c2=O)cc1C,"inconclusive [falling, full curve, poor fit]",
C[N+]1(C)C[C@@H](O)C[C@@H]1C(=O)[O-],"inconclusive [quencher, full curve]",
CC1CCN(CCCNC(=O)c2ccc(Cn3c(=S)[nH]c4ccc(Br)cc4c3=O)cc2)CC1,,inactive: -1.9%
COCCCNc1nc2c(c(=O)n(C)c(=O)n2C)n1Cc1ccccc1,"inconclusive [falling, full curve, poor fit]",
CCC1CN(C(=O)N2CCC(C(=O)NCc3ccco3)CC2)c2cc(C)ccc2O1 (centres undefined),"inconclusive [falling, full curve, poor fit]",
COc1cc(/C=N/NC(=O)Cc2ccccc2)ccc1Oc1ccc([N+](=O)[O-])cc1[N+](=O)[O-],"inconclusive [falling, full curve, poor fit]",
COc1ccc(-c2nc3c(C#N)c[nH]n3c2NC2CCCC2)cc1,,inactive: -0.062%
COc1ccc(CC(=O)Nc2cc(-c3nc4cccnc4s3)ccc2C)cc1,"inconclusive [quencher, full curve]",
COc1ccc(Cn2cc(C(=O)c3ccc(F)cc3)c(=O)c3cc4c(cc32)OCCO4)cc1,"inconclusive [falling, partial curve, poor fit]",
CCOC(=O)c1nn2c(C(F)(F)F)cc(-c3ccc(C)cc3)nc2c1Cl,inconclusive,
CN1/C(=C\C(=O)COC(=O)CNC(=O)c2ccc3ccccc3c2)C(C)(C)c2ccccc21,,inactive: 5.45%
CCOc1ccc(/C=C/C(=O)c2cc(Br)ccc(=O)c2O)cc1,,inactive: -12.1%
O=S(=O)(Nc1ccc(F)cc1F)c1ccc(Br)s1,"inconclusive [quencher, partial curve]",
Cc1ccc2cc(/C=N/Nc3ccc(C(=O)O)cc3)c(Cl)nc2c1,"inconclusive [quencher, partial curve]",
Cc1cc(-c2ccc(N=Nc3cc(S(=O)(=O)O)c4ccccc4c3N)c(C)c2)ccc1N=Nc1cc(S(=O)(=O)O)c2ccccc2c1N,"inconclusive [quencher, partial curve]",
COC1(C#CC2C=CC(OC(C)=O)C(COC(C)=O)O2)CCCCC1 (centres undefined),"inconclusive [falling, full curve, poor fit]",
CN(C)c1ccc(C(=O)C(O)c2ccc(C(C)(C)C)cc2)cc1 (centres undefined),,inactive: -1.57%
COc1cc(OC)c(NC(=O)Cn2c(=O)cc(C)c3c(C)nn(-c4ccc(C)cc4)c32)cc1Cl,"inconclusive [falling, full curve, poor fit]",

Compound,Potency,"fluorescence change, negative = quenching"
CCNC(=O)c1ccc(CSc2nc3cccnc3n2Cc2ccc(OC)cc2)cc1,"inconclusive [quencher, full curve]",
O=C(Cn1cnc2onc(-c3ccc(F)cc3)c2c1=O)Nc1cccc(C(F)(F)F)c1,"inconclusive [falling, partial curve, poor fit]",
CSc1nc(N)nc(SCC(=O)Nc2cccc(F)c2)c1C#N,active: 1.26 µM [quencher],
CCOC(=O)C1=C(C)NC(C)=C(C(=O)OCC)C1c1ccccc1C=CC(=O)OC(C)(C)C,,inactive: -1.56%
Cc1ccc(Cn2c(/C=C/c3ccco3)nc3ccccc32)cc1,,inactive: 0.0406%
Cc1ccc(NC(=O)CSc2nc3c(c(=O)[nH]2)CN(Cc2ccc(F)cc2)CC3)cc1C,"inconclusive [falling, full curve, poor fit]",
COc1ccccc1-c1cc2nc(C)c(CCC(=O)NCCc3ccc(SC)cc3)c(C)n2n1,"inconclusive [quencher, full curve]",
O=C1C=C(NCCO)C(=O)c2cnccc21,,inactive: -5.11%
CC(=O)c1cc(NC(=O)c2ccccc2)c(=O)oc1C,,inactive: -2.53%
O=c1c2cc3c(cc2n(Cc2ccccc2)c(=O)n1Cc1nc(-c2ccccc2)no1)OCO3,,inactive: 0.405%
O=C(CCC1CCCN(C(=O)c2ccncc2)C1)NCc1ccc(F)c(F)c1 (centres undefined),,inactive: -2.32%
CCN(CC)CCCC(C)n1c(-c2ccccc2)nc2c(NC3CCCCC3)nc(C)nc21 (centres undefined),,inactive: 1.45%
CCOC(=O)C1CCCN(c2c(C(=O)c3ccc(OCC)cc3)cnc3ccccc23)C1 (centres undefined),"inconclusive [falling, full curve, poor fit]",
CCN1CCN(CCCNC(=O)c2cnn(-c3ccccc3Cl)c2C2CCN(C(=O)OC(C)(C)C)CC2)CC1,"inconclusive [quencher, full curve]",
Cc1ccc(C(=O)N/N=C/c2ccc(-c3ccccc3[N+](=O)[O-])o2)cn1,active: 31.6 µM [quencher],
CC1/C=C/C=C/C=C/C=C/C=C/C=C/C=C/C(OC2OC(C)C(O)C(N)C2O)CC2O[C@@](O)(CC(O)CC(O)C(O)CCC(O)CC(O)CC(=O)OC(C)[C@H](C)C1O)CC(O)C2C(=O)O (some centres undefined),,inactive: 17.7%
COc1ccc(NC(=O)c2oc3ccccc3c2NC(=O)Cc2coc3cc(C)ccc23)cc1,inconclusive,
Nc1nc2ncc(=O)[nH]c2c(=O)[nH]1,"inconclusive [quencher, full curve]",
CCCOc1ccc(CNC(=O)c2ccc3c(c2)N(Cc2ccccc2)CCS3)cc1,"inconclusive [falling, full curve, poor fit]",
COc1ccc(-c2cn3c(n2)sc2cc(C(=O)Nc4cccc(SC)c4)ccc23)cc1,"inconclusive [quencher, full curve]",
COc1ccc(C)cc1NC(=O)Cn1c(=O)oc2cc(S(=O)(=O)N3CCCCC3)ccc21,"inconclusive [falling, full curve, poor fit]",
CCn1cc2nc(SCC(=O)Nc3ccc(OC)c(Cl)c3)n(Cc3ccc(OC)cc3)c(=O)c2n1,active: 3.55 µM [quencher],

Compound,Potency,"fluorescence change, negative = quenching"
COc1ccc(-c2cc3nc(C)c(CCC(=O)NCc4ccccc4Cl)c(C)n3n2)c(OC)c1,"inconclusive [falling, full curve, poor fit]",
CCN(CC)S(=O)(=O)c1ccc(/C=C/C(=O)OCC(=O)Nc2ccc(C(N)=O)cc2)cc1,,inactive: -1.04%
CCCCC#CC1C=CC(Oc2cc(OC)c(OC)c(OC)c2)C(COC(=O)OCC)O1 (centres undefined),"inconclusive [falling, partial curve, poor fit]",
COc1c(O)c(O)cc2c1oc1c3cc(C)ccc3oc(=O)c21,"inconclusive [falling, single point]",
O=C(c1cc(-c2cccc(Cl)c2)on1)N1CCCCC1,"inconclusive [quencher, full curve]",
Cc1ccc(CN(Cc2cccn2-c2nnc(N3CCCC3=O)s2)C(=O)Nc2ccccc2Cl)cc1,"inconclusive [quencher, full curve]",
COc1ccc(NC(=O)N2CCC(O)(c3cccnc3)CC2)c(OC)c1,,inactive: -1.12%
Cn1c(CN2CCOCC2)nc2cc(NC(=O)c3ccccc3[N+](=O)[O-])ccc21,active: 100 µM [quencher],
Cc1nn(Cc2ccc(F)cc2)c(C)c1NC(=O)c1noc2c1CCc1ccccc1-2,"inconclusive [falling, full curve, poor fit]",
Nc1ccc2nc(-c3ccc(N)c(Cl)c3)[nH]c2c1,"inconclusive [quencher, partial curve]",
CCCCN(CCCC)CCCNC(=O)c1cc(-c2ccc(Cl)s2)nc2ccccc12,active: 0.794 µM [quencher],
CCCn1cc(S(=O)(=O)c2ccc(C)c(C)c2)c(=O)c2cc(F)c(N3CCCCC3)cc21,active: 282 µM [quencher],
O=C(C1CCN(S(=O)(=O)c2cccs2)CC1)N1CCN(c2ccccc2F)CC1,"inconclusive [falling, partial curve, poor fit]",
CC(C)CC(=O)Nc1ccc2nc(SCC(=O)N3CCOCC3)sc2c1,active: 1260 µM [quencher],
Cc1ccc(-c2nc3cccc(C)n3c2Nc2ccc3c(c2)OCO3)o1,"inconclusive [falling, full curve, poor fit]",
Cc1nn2c(NC(C)C)c3c(nc2c1-c1ccccc1)CCC3,,inactive: -0.0702%
COC(=O)[C@H]1C(OC)[C@@H](OC(=O)c2cc(OC)c(OC)c(OC)c2)C[C@@H]2CN3CCc4c([nH]c5cc(OC)ccc45)[C@H]3C[C@H]21 (some centres undefined),"inconclusive [falling, partial curve, poor fit]",
Oc1c(C=C2N=c3ccccc3=N2)sc(=S)n1-c1ccccc1,active: 31.6 µM [quencher],
CCOC(=O)c1sc2ncn(/N=C/c3cccnc3)c(=O)c2c1C,,inactive: 1.43%
Cc1cccc(NC(=O)c2ccc(CN3CC(=O)N4CCCCC4C3=O)cc2)c1C (centres undefined),"inconclusive [quencher, full curve]",
